B1: GPR68, Q15743 (parent)
chain: MGNITADNSSMSCTIDHTIHQTLAPVVYVTVLVVGFPANCLSLYFGYLQIKARNELGVYLCNLTVADLFYICSLPFWLQYVLQHDNWSHGDLSCQVCGILLYENIYISVGFLCCISVDRYLAVAHPFRFHQFRTLKAAVGVSVVIWAKELLTSIYFLMHEEVIEDENQHRVCFEHYPIQAWQRAINYYRFLVGFLFPICLLLASYQGILRAVRRSHGTQKSRKDQIQRLVLSTVVIFLACFLPYHVLLLVRSVWEASCDFAKGVFNAYHFSLLLTSFNCVADPVLYCFVSETTHRDLARLRGACLAFLTCSRTGRAREAYPLGAPEASGKSGAQGEEPELLTKLHPAFQTPNSPGSGGFPTGRLA

In data set [1] the parent is B1. Nature of the data set: cAMP reporter score (Enrich2 score, wild type = 0); higher = more signal; HEK293T, FACS bins.
Variants of B1 are the subject of data set [2]. Briefly: surface expression score (Enrich2 score, wild type = 0); higher = more signal; HEK293T, FACS bins.

The least precise scores are not listed. The source holds two more conditions with little spread; they are left out. In variant names, del marks residues removed and ins residues inserted between the two positions. For part of these data: The concentration of ogerin is not given here.

With L229Q, the cAMP reporter score in data set [1] (pH 5.5) is 0.808; in data set [1] (pH 6), 1.91; in data set [1] (pH 6, modulator: ogerin) it was 0.865; in data set [1] (pH 6.5, modulator: ogerin), 1.75. The surface expression score in data set [2] is -0.26.
In the case of L229A, the cAMP reporter score is -0.055 in data set [1] (pH 5.5); -0.709 in data set [1] (pH 6, modulator: ogerin); -2.62 in data set [1] (pH 6.5, modulator: ogerin). Moreover, the surface expression score in data set [2] is -2.18.
For L229H, the cAMP reporter score was -1.14 in data set [1] (pH 5.5) and -0.881 in data set [1] (pH 6, modulator: ogerin). Besides, in data set [2], the surface expression score was -0.542.
In the case of L229W, the cAMP reporter score in data set [1] (pH 5.5) was -0.358; in data set [1] (pH 6), -1.44; in data set [1] (pH 6, modulator: ogerin), -1.55; in data set [1] (pH 6.5, modulator: ogerin), -1.79.
For L229K, the cAMP reporter score is 2.59 in data set [1] (pH 5.5) and -0.628 in data set [1] (pH 6, modulator: ogerin). In data set [2], the surface expression score is -0.41.
As to L229G, the cAMP reporter score in data set [1] (pH 5.5) was -1.11; in data set [1] (pH 6), 0.357; in data set [1] (pH 6, modulator: ogerin), -0.543; in data set [1] (pH 6.5, modulator: ogerin) it was 1.24. The surface expression score in data set [2] was -1.97.
For L229R, in that order: -0.422, -0.577, -0.7, -0.432 and -0.43.
As for L229C, the cAMP reporter score was 0.665 in data set [1] (pH 5.5); 0.026 in data set [1] (pH 6); 0.022 in data set [1] (pH 6, modulator: ogerin); -0.704 in data set [1] (pH 6.5, modulator: ogerin). The surface expression score in data set [2] is -0.648.
For L229M, in that order: -0.501, -0.275, -0.432, -1.24 and -0.845.
For L229S, the cAMP reporter score was -0.567 in data set [1] (pH 5.5); -1.35 in data set [1] (pH 6); -1.51 in data set [1] (pH 6, modulator: ogerin); -1.28 in data set [1] (pH 6.5, modulator: ogerin). In data set [2], the surface expression score is -1.57.
On to L229F, for which the cAMP reporter score was -0.389 in data set [1] (pH 5.5); -0.017 in data set [1] (pH 6); -1.09 in data set [1] (pH 6, modulator: ogerin); -0.564 in data set [1] (pH 6.5, modulator: ogerin). Further, in data set [2], the surface expression score was -0.717.
Turning to L229T, the cAMP reporter score in data set [1] (pH 5.5) is -0.259; in data set [1] (pH 6), 2.96; in data set [1] (pH 6, modulator: ogerin) it was 0.684; in data set [1] (pH 6.5, modulator: ogerin) it was 1.19. For the same variant, in data set [2], the surface expression score was -1.66.
For L238del, the cAMP reporter score is -1.03 in data set [1] (pH 5.5); -0.761 in data set [1] (pH 6); -2.24 in data set [1] (pH 6, modulator: ogerin); -1.08 in data set [1] (pH 6.5, modulator: ogerin). In addition, the surface expression score in data set [2] was -0.286.
For V234_V235del, the cAMP reporter score was -1.67 in data set [1] (pH 5.5); -1.3 in data set [1] (pH 6); -2.27 in data set [1] (pH 6, modulator: ogerin); -1.51 in data set [1] (pH 6.5, modulator: ogerin). Moreover, the surface expression score in data set [2] was -2.46.
As for L231del, the cAMP reporter score in data set [1] (pH 5.5) is -1.28; in data set [1] (pH 6) it was -1.4; in data set [1] (pH 6, modulator: ogerin), -1.3; in data set [1] (pH 6.5, modulator: ogerin), -0.894. The surface expression score in data set [2] is -2.31.
Consider I236del, for which the cAMP reporter score was -3.54 in data set [1] (pH 5.5) and -0.748 in data set [1] (pH 6.5, modulator: ogerin). Further, in data set [2], the surface expression score was -1.22.
For the variant V235_I236insG, the cAMP reporter score is -0.429 in data set [1] (pH 5.5); -1.71 in data set [1] (pH 6); -3.05 in data set [1] (pH 6, modulator: ogerin).
For Q227S, the cAMP reporter score in data set [1] (pH 5.5) was 0.635; in data set [1] (pH 6) it was 0.338; in data set [1] (pH 6, modulator: ogerin), 1.3; in data set [1] (pH 6.5, modulator: ogerin), 0.9. Besides, the surface expression score in data set [2] was 0.813.
As for Q227Y, the cAMP reporter score in data set [1] (pH 5.5) is 0.179; in data set [1] (pH 6), 3.3; in data set [1] (pH 6, modulator: ogerin) it was 1.05; in data set [1] (pH 6.5, modulator: ogerin) it was 2.08. In addition, in data set [2], the surface expression score is -0.218.
For Q227N, in that order: -0.166, 0.575, 0.861, 0.138 and -0.237.
As for Q227M, the cAMP reporter score amounted to 0.167 in data set [1] (pH 5.5); 0.8 in data set [1] (pH 6, modulator: ogerin); 1.53 in data set [1] (pH 6.5, modulator: ogerin). In data set [2], the surface expression score was -0.383.
For Q227R, the cAMP reporter score in data set [1] (pH 5.5) was -0.473; in data set [1] (pH 6) it was -0.179; in data set [1] (pH 6, modulator: ogerin), -0.63; in data set [1] (pH 6.5, modulator: ogerin), -0.679. Moreover, the surface expression score in data set [2] is -0.398.
For the variant Q227W, the cAMP reporter score in data set [1] (pH 5.5) is 1.1; in data set [1] (pH 6, modulator: ogerin) it was -0.01.
Consider Q227P, for which the cAMP reporter score in data set [1] (pH 5.5) is -0.005; in data set [1] (pH 6), 1.08; in data set [1] (pH 6, modulator: ogerin), -0.098; in data set [1] (pH 6.5, modulator: ogerin), -0.309. Further, the surface expression score in data set [2] is -0.346.
For Q227V, in that order: -0.363, -0.126, -0.419, -0.315 and 0.127.
On to Q227T, for which the cAMP reporter score in data set [1] (pH 5.5) was determined as 0.379; in data set [1] (pH 6), 0.689; in data set [1] (pH 6, modulator: ogerin), 0.449; in data set [1] (pH 6.5, modulator: ogerin) it was 1.26. The surface expression score in data set [2] came to 0.031.
Consider V230_L231insGS, for which the cAMP reporter score in data set [1] (pH 5.5) was -1.71; in data set [1] (pH 6) it was -2.3; in data set [1] (pH 6.5, modulator: ogerin), -0.164.
With T233_V234insGS, the cAMP reporter score in data set [1] (pH 5.5) is -1.64; in data set [1] (pH 6), -0.666; in data set [1] (pH 6, modulator: ogerin), -1.62; in data set [1] (pH 6.5, modulator: ogerin), -1.74. In addition, the surface expression score in data set [2] was -2.27.
In the case of R228del, the cAMP reporter score in data set [1] (pH 5.5) was -0.582; in data set [1] (pH 6), -0.903; in data set [1] (pH 6, modulator: ogerin) it was -0.605; in data set [1] (pH 6.5, modulator: ogerin), -0.327. Also, the surface expression score in data set [2] is 0.21.
As to T233del, the cAMP reporter score in data set [1] (pH 5.5) was -1.3; in data set [1] (pH 6), -1.38; in data set [1] (pH 6, modulator: ogerin), -2.13; in data set [1] (pH 6.5, modulator: ogerin) it was -0.956. In data set [2], the surface expression score is -2.61.
For L229_V230del, the cAMP reporter score in data set [1] (pH 5.5) is -1.2; in data set [1] (pH 6.5, modulator: ogerin) it was 0.12. Besides, the surface expression score in data set [2] is -0.83.
Take A239_C240insG: the cAMP reporter score in data set [1] (pH 5.5) was -1.31; in data set [1] (pH 6), -1.25; in data set [1] (pH 6, modulator: ogerin), -1.03; in data set [1] (pH 6.5, modulator: ogerin) it was -1.7. Further, the surface expression score in data set [2] is -2.55.
In the same order, the values of C240_L242del are -1.43, -0.744, -1.41, -0.568 and -3.35.

The record behind these values is the GPR68 mutational scans of Howard et al. (2025).
